The values that follow come from the supplement of paper PMC12632987.

B1: LC3A_78_2080 (protein)
chain: MKVAIIAHEPSAKEEAEKEAEKLTDADEIIITDISKLEEEVKKYKDADEIEVYIHADTLDKVDEAVEKVKEILKDYKISEIIEYDEETGHYTGYIIAKKK
B2: LC3A_132_238 (protein)
chain: SEELLEEIRKKIEELLKKIEENIDNLEKVKELVAELRELLERAEKELSPEDTLELAEETAERLDKLREKAEEAGKEEVAQQLENASMYADGIAIEAELKL
B3: LC3A_free_8_2475 (protein)
chain: AVQALVDQITAELDKLEEEATKLAKELGVDELDILELELEIGSAIAELISASDESIEEVRKVAEEEMKEIKEIAKELGEEIAKLVEETEKKILALIDAAE
B4: LC3A_3_1809 (protein)
chain: MEERLEEVIKLLKEAGHSQETIDAFKKAYEALKKKGYEKTLETLLELAEKNIDLPSELMLEMFNDVLELVETSDLSEEEITKKVKEIAKTYENESEIIEL
B5: LC3A_147_433 (protein)
chain: WKVEVDIDILTKDAEEEILKYFKELEEELKKKGYKVELNIEVEKLEDGTTYINIKIIIEAKTKEEAEEAANYVIDKIDELVEKLKDKILGSIISVEIIKK
B6: LC3A_23_628 (protein)
chain: MYKVTVTVDVIGSPEEIEKKTKELKEKIEELVEKYKDKIKEYEIKVEKEKLPDGQTFATITITIITDGDLETAQEIANEVTSIASEVFPDGVISVEIEKL
B7: LC3A_28_881 (protein)
chain: SAALASAEAALAEVKAAVAAGDTSPLVLTVKAPSTEEDAERFLALLEELAAEASKLPGVTIIIDIDESVSQELRDRIIDKAEELEEKYPNVTIIIALSEE
B8: LC3A_28_873 (protein)
chain: SRVDERVEAARKEAEEQAKEGEDIVVEVEVDSSMSLEEAVELMKRVLEMAREFVEKTGLKVTIVVDFDGSQETLDALLELAEEAEEENPKITVIFAISEE
B9: LC3A_free_8_2484 (protein)
chain: ASEKVANELSEALSEMEEELVKKAKELGKSRLDILELELEIGAAIAEVISLRDESVEKIAEATKESLEEILELAKELGEEIYKLAKEKAEKIRELAEKAL
B10: LC3A_147_471 (protein)
chain: VKVIVDIDILTKNAEEEVIEKIKEIVEELKKKGYKVELEIETEKLPDGTTYIKVKITIYAETKEEGEKAANEVIDKLEELEEELKDKILGSIISVEIIEE
B11: LC3A_3_1841 (protein)
chain: LEELREEAIAALKAAGHSQETIEAFLAALEALLARGYEEAARTFIELMLENIDMPDELLLALARDVLAYVETTDDSEEEVTARIRELARLYRNEYEIEEL
B12: LC3A_78_2090 (protein)
chain: MKTIVVYTSEKVKPEAEKLAKKITNADEVLLVEAEDLEKELKKYENEEEVDVIIVAETLEEVEELIEKVKEIFKDHKVSSIIEIDEETGIYIGYILVEKK
B13: LC3A_127_211 (protein)
chain: EKEKLLKEALELARKALEAAQKIPEKGEEARKEAEELLKKLIEVLKKIPSLKESLEDAEQALEIAKKMPELNEAEREEAREHIEMILSGIEIDVELELLK
B14: LC3A_45_1937 (protein)
chain: MYLATIDLIVPRELAEEALALAEEIARELEEENDGKVEVDLETLRESYEATRDEEDVLLVVKIYAETEELALDVADRLVDRLRAALGPRVAAIISVEEVP
B15: LC3A_3_1895 (protein)
chain: LEEELKETLEELKKAGASEEVLKLFKEVYEELLKRGYEEAARTLIEEMKKLKDASDEILKWFLEEVLEVIKTEDLNEEELIERIREIARTALNESEIEEL
B16: LC3A_3_1801 (protein)
chain: MEEKIEELLEELREAGKSEETIEAVREALELLKERGFEEALEVFIEELRKLIDAPDELILELAEEVLELLKNEDLSEEEVIERIKELARLALNESEIEEL
B17: LC3A_28_761 (protein)
chain: MTPEEIVEKAIKEAKEFKEKGESAVITITVPDGATEEDVEIYIEGLEKIAEILKDMKNAAIIVDVDGGVKQENLDKIVDKAEEIEKKYPNVTVIIALDEE
B18: LC3A_3_1891 (protein)
chain: LEERIERTEELLREKGASEETIELFRKVMELLKARGYEEALKTLIEEVEELADLPDEILLDFLEEVLEVLETEDLSEEELIKKIKELARLARNEGEIIEL
B19: LC3A_17_580 (protein)
chain: SAEVEALYEEARKVIEEAAKFAAKHDAAAAKQIKALLAELDAAKATGDDRVILETIAALMDEVANILDSLEDKDPEAATLLSMEAEGVAIEAESLLLKLE
B20: LC3A_28_836 (protein)
chain: SFAEEEIKKAKKALEKAKETKEDVVVEVVIKSTMTPEEAQYIMDELEKEVSKLPKDVKVSIVFLAEEPVDPEVLQTIADGGDEIEEKYPNVTVIIALPEE
B21: LC3A_28_670 (protein)
chain: MELKEELEKKLAEAKKAAAKGEPTVFVLKVPGDATEEDIEYFIEKLEEIAELLKDVKGSAIIVDLSGDLSEEHRNKIIDRAEEINEKYPNVTVIIALEDR
B22: LC3A_3_1438 (protein)
chain: MEKLIKEAEEVLKKIGASEEAREAVLKLVRLALEAGEEELVEELIKVLKKAKNVPSEELLEAAEEALRLIEEEGVSVEEVMKRFIEEIRLLELEKEIEEL
B23: LC3A_28_1092 (protein)
chain: SALDASLEAALAETREAAARGEEVLVTITVDGSATEEDLERLKAALREIAEIAAGLPRLTVVVDLDGEKQREKADIIGAFADELEAEYPNLTVIIALDEE
B24: LC3A_28_1032 (protein)
chain: AALEESARAALAEAEAQLAAGEEAVVTLDVGDVDTETAKAVVAAFLAALRALSARHGGAKITVVINYDGDQETLDAIIDVADAAEAADPNLTVIIAYPDK
B25: LC3A_3_1671 (protein)
chain: MEELIEKLIELLKEKGASEEELEELLEAIEELKEVSSEEVVKTLIEEMLKAKDVPVEIMIEMVKDIVEKIKKENLSEEEQIELVKSEVAAARAEAEIEEL
B26: LC3A_3_1680 (protein)
chain: MEEKVKEVLKKLKENGFDEETIKAAKKLLEALKKKGYEKAIEELLKELEKLKDVPSEKVKDMFEDILRYVEEENPSEEEIVKLIREEAKTLLNDLEIEEL
B27: LC3A_3_1395 (protein)
chain: FEEIRKETIEYLKKAGKSEEVIKAAEEALELLEKRGYLEAAKTFLEELKKMKDVSDELLLWFLNEVINYLKTNDDDEETVIKKIKEFATIVKNESEIEEL
B28: LC3A_free_8_2456 (protein)
chain: SSQKLVDTAVKLLEEMEKELTELAKKEGLSRLDILELELEIGSLIAEVISLVDKSPEEILETTKEGLEEIIELAKELGEEVAKLAEEKSKEIIEELEKLI
B29: LC3A_45_2000 (protein)
chain: MWEITIDLLGPREKVEKAVELILEVVEEFSKETGIKIEVDEELIEASIEASKDEEEVFARIVIKIDGDEAHANELVQRLDEVLEEVGPGLSAIISVEKIE

In all, about 2,300 sequences were measured (“median log2 fold change of GCK-ALFA target abundance (FLAG IP / Myc IP barcode read proportion)”: median about 0.095, lowest 2% from about -0.47 on). The list shows a part of the results.

In this experiment the target is MAP1LC3A, Q9H492. Nature of the experiment: median log2 fold change of GCK-ALFA target abundance (FLAG IP / Myc IP barcode read proportion) (log2 ratio); each designed protein is fused to an ALFA-tag nanobody in HEK293 cells to bring the named protein to FLAG-tagged glucokinase (GCK); Myc marks an untargeted standard; higher = target protein stabilised (more abundant). The following applies: target protein: 3xFLAG-MCP-GCK-ALFA reporter; HEK293 landing pad (RPLP). Summed up:
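An ALFA-nanobody-fused binder library was recombined into HEK293 landing-pad cells and induced with 2 μg mL^−1 doxycycline. Cells were transfected with a plasmid expressing a FLAG-tagged target and a Myc-tagged standard. After 48 h, lysates underwent anti-FLAG and anti-Myc immunoprecipitation, and circular RNA barcodes were reverse transcribed, amplified and sequenced. Target abundance is the per-binder median log2 ratio of FLAG to Myc barcode read proportions. Barcodes needed ≥10^−7 proportion in both replicates, binders ≥3 barcodes per replicate, and a 10^−6 pseudocount was added; the two replicates were pooled.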
Consider B1, for which the “median log2 fold change” value came out at 0.218.

Regarding B2, the “median log2 fold change” value was -0.13. With B3, the “median log2 fold change” value was -0.0791. The result for B4 reads 0.116; that for B5, -0.342; that for B6, 0.152. In the case of B7, the “median log2 fold change” value is -0.0723. Consider B8, for which the “median log2 fold change” value is 0.0922.

Regarding B9, the “median log2 fold change” value was -0.0489.

In the case of B10, the “median log2 fold change” value was -0.00582. For B11, the “median log2 fold change” value was found to be 0.283. B12: the “median log2 fold change” value is -0.0376. Turning to B13, the “median log2 fold change” value is 0.265. With B14, the “median log2 fold change” value is -0.359. In the case of B15, the “median log2 fold change” value was found to be 0.242. On to B16, for which the “median log2 fold change” value was determined as 0.225. Take B17: the “median log2 fold change” value was -0.31. As for B18, the figure is -0.0314; as for B19, -0.0636. The result for B20 reads 0.111. Turning to B21, the “median log2 fold change” value was -0.137. For B22, the “median log2 fold change” value amounted to 0.216. As for B23, the figure is 0.0777. Consider B24, for which the “median log2 fold change” value is -0.2. Regarding B25, the “median log2 fold change” value was 0.32. In the case of B26, the “median log2 fold change” value is 0.337. As for B27, the figure is 0.436; as for B28, -0.163; as for B29, -0.0651.
